Data: PubChem BioAssay AID493208 (National Center for Advancing Translational Sciences (NCATS), 2011)
Among all 44,000 compounds or so, about 340 (0.77%) were called active. About 5% were inconclusive and are not listed. The call rests on the fitted dose curve; in most records, active means well fitted inhibition curve with a large enough effect; inconclusive means small, poorly fitted or top-dose-only effect; inactive means flat fitted curve, though single readings scatter. The list shows a part of the results.

Assay: Acumen qHTS Assay for Inhibitors of the mTORC1 Signaling Pathway in MEF (Tsc2-/-, p53-/-) Cells: Sytravon; further: nearly all actives have a fitted effect of over 50% in size;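 on activity change, negative = inhibition: plate controls were DMSO for no effect and rapamycin for full effect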
Details: phospho-rpS6 immunofluorescence/PI, 24 h; series mostly up to 38.3 µM; activity change, negative = inhibition: at the top concentration
Method in brief: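 Readout is phospho-S6 Alexa 488 signal normalized to PI per well, reported as % active cells with thresholds set from rapamycin (7.5 nM) and DMSO controls. Cells: Tsc2-/-, p53-/- MEFs, 24 hrs compound at 37 C; PI cell number serves as viability.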
Potency means the concentration at half of the fitted maximal effect.

SMILES	activity change, negative = inhibition	Potency
Cc1ccc(-n2ncc(C(=O)N3CCN(Cc4ccccc4)CC3)c2C2CCN(C(=O)OC(C)(C)C)CC2)cc1	inactive: 1.43%	–
CC(=O)c1cc(-c2ccccc2)n(CCC(=O)Nc2ccc(C(C)C)cc2)c1C	inactive: -8.94%	–
Cc1ccc(-n2ccnc(NCCc3ccc(S(N)(=O)=O)cc3)c2=O)c(C)c1	inactive: -3.23%	–
CC(C)(C)OC(=O)N1CCC(c2c(C(=O)NCCN3CCCC3)cnn2-c2ccc(Cl)cc2)CC1	inactive: 3.17%	–
Cc1oc(-c2ccc(C(=O)NCc3ccc(F)cc3)cc2)nc1CS(=O)c1ccccc1 (stereo not given)	inactive: -3.99%	–
CCOc1ccc(/C=C/c2nc(C#N)c(NC3CCCCC3)o2)cc1	inactive: 1.61%	–
CC(=O)c1cc2c(cc1N/C(=N/S(=O)(=O)c1ccccc1)c1ccc(Cl)cc1)OCO2	inactive: -6.71%	–
Cc1cc(C)cc(C(=O)Nc2c(C(=O)Nc3ccccc3F)oc3ccccc23)c1	inactive: -9.52%	–
COc1ccccc1OCCn1c(C(C)Oc2ccccc2)nc2ccccc21 (stereo not given)	inactive: 0.628%	–
COc1ccccc1-c1nnc(SCC(N)=O)o1	inactive: -4.86%	–
CCN(CC)CCNC(=O)c1ccc(-c2nc(CS(=O)(=O)c3ccc(C)cc3)c(C)o2)cc1	inactive: -2.54%	–
CC(C)c1ccc(NC(c2nnc(-c3ccccc3)o2)c2ccc(F)cc2Cl)cc1 (stereo not given)	inactive: -16.3%	–
Cc1ccccc1NC(=O)c1nc(S(C)(=O)=O)ncc1N(Cc1ccco1)Cc1sccc1C	inactive: 1.09%	–
Cc1ccccc1OCC(=O)Nc1ccc(C(=O)OCc2cc(=O)n3ccsc3n2)cc1	inactive: 0%	–
Cc1ccc(-c2nc(NC(=O)CSc3ccc4ccccc4n3)ns2)cc1	inactive: -6.57%	–
CCN(C(=O)CCc1nc(-c2ccc(C)cc2)no1)c1cccc(Cl)c1	inactive: -14.6%	–
COc1cc2c(cc1OC)C(COc1ccc3c(C)cc(=O)oc3c1)N(C(=O)Cc1ccccc1)CC2 (stereo not given)	inactive: -10.7%	–
COC(=O)c1cc2sccc2n1CC(=O)Nc1ccc(C)cc1C	inactive: 3.04%	–
CCOc1ccccc1C(=O)NC1(C(F)(F)F)C(=O)Nc2c1c(=O)[nH]c(=O)n2-c1ccccc1 (stereo not given)	inactive: 6.39%	–
Cc1cc(C)c(Cn2c3ccccc3c3cnn(CC(=O)NCCC4=CCCCC4)c(=O)c32)c(C)c1	inactive: -1.59%	–

SMILES	activity change, negative = inhibition	Potency
COc1cccc(CNC(=O)c2ccc3nc(-c4ccccc4)c(-c4ccccc4)nc3c2)c1OC	inactive: 1.65%	–
COc1ccc(Nc2nnc(-c3ccc(C)c(S(=O)(=O)NCc4nc5ccccc5[nH]4)c3)c3ccccc23)cc1	inactive: 9.05%	–
CCC(C)Sc1oc(-c2ccco2)nc1S(=O)(=O)c1ccc(Cl)cc1 (stereo not given)	inactive: -23.9%	–
Cc1ccc(NC(=O)Cn2nnc(C(=O)NCCc3ccccc3)c2N)cc1	inactive: 2.27%	–
Clc1ccc(-c2csc(-c3nc(-c4ccc(Br)s4)cs3)n2)cc1	inactive: 0.115%	–
O=C(NCc1ccc(Cl)cc1)c1ccc2c(c1)NC(=O)C(CS(=O)(=O)Cc1ccc(F)cc1Cl)N2 (stereo not given)	inactive: -10.3%	–
O=C(CCN1CCN(CCO)CC1)Nc1ccc(Br)cc1	inactive: 8.7%	–
COc1ccc(C)cc1NC(=O)c1cc2ccccn2n1	inactive: -7.17%	–
CCc1ccc(NC(=O)C2CCCN(S(=O)(=O)c3cccc4nsnc34)C2)cc1 (stereo not given)	inactive: -17%	–
COc1cccc(NC(=O)CCc2nnc3n(Cc4ccccc4Cl)c(=O)c4ccccc4n23)c1	inactive: -0.748%	–
Cc1ccc(NC(=O)c2c(C)nc3sc(C(=O)Nc4ccc(F)cc4)c(N)c3c2-c2ccc(Cl)cc2)c(C)c1	inactive: -2.64%	–
O=C1CC(c2nnc(Cc3c(F)cccc3Cl)o2)CN1c1ccccc1 (stereo not given)	inactive: -4.76%	–
Cc1ccc(Nc2c(-c3ccc(N4CCOCC4)cc3)nc3cccc(C)n23)cc1	inactive: -10.1%	–
Cc1cccc(CN2C(=O)c3ccccc3S(=O)(=O)c3ccc(C(=O)N(C)Cc4ccccc4)cc32)c1	inactive: 2.27%	–
CCOc1ccccc1C(=O)Nc1ccc(-n2nncc2-c2ccccc2)cc1	inactive: -20.1%	–
CCOC(=O)c1ccc(NC2(c3ccccc3)C(=O)c3ccccc3C2=O)cc1	inactive: 3.54%	–
COc1ccccc1C(=O)Nc1nnc(S(=O)(=O)N2CCN(c3ccc(F)cc3)CC2)s1	inactive: 6.36%	–
CCOC(=O)c1ccc(NC(=O)c2sc3ccccc3c2Cl)cc1	inactive: 12.5%	–
Cc1ccc(-c2nnc3ccccc3c2C(=O)Nc2ccc(C)c(F)c2)cc1	inactive: -6.9%	–
CCc1nnc(SCc2nc(-c3cccc(Cl)c3)oc2C)c2cc3sc(C)cc3n12	inactive: 5.33%	–

SMILES	activity change, negative = inhibition	Potency
COc1cc(OC)c(NS(=O)(=O)c2cc3c(cc2C)N(C(C)=O)CCO3)cc1Cl	inactive: 4.67%	–
COc1ccccc1NC(=O)CN(c1cc(C)cc(C)c1)S(=O)(=O)c1c(C)[nH]c(=O)[nH]c1=O	inactive: -1.17%	–
NC(=O)c1c(NC(=O)c2cc(-c3ccc(F)cc3)on2)sc2c1CCCC2	inactive: -4.01%	–
Cc1cccc(NC(=O)Cn2nnc(C(=O)NCc3cccs3)c2N)c1	inactive: 2.89%	–
CCC(C(=O)Nc1ccc(C(C)C)cc1)n1nc(C)n2c(cc3cc(C)ccc32)c1=O (stereo not given)	inactive: 0.0813%	–
COc1ccc(Cl)cc1NC(=O)CCn1c(=O)c2cccn2c2ccccc21	inactive: -13.2%	–
CN(C)c1ccc(CNC(=O)C2CCCN(S(=O)(=O)c3ccc4c(c3)CCCC(=O)N4)C2)cc1 (stereo not given)	inactive: -8.67%	–
Cc1ccc(C)c(Cn2c(=O)cc(C(F)(F)F)c3c(C)nn(C)c32)c1	inactive: -5.57%	–
Cc1ccccc1C(=O)NCc1nc(-c2ccc(Cl)cc2)no1	inactive: 3.37%	–
Cc1ccc(Nc2c3c(nc4nc(-c5cccs5)nn24)CCCC3)cc1F	inactive: -1.06%	–
COc1ccc(N2C(=O)CSC23C(=O)N(Cc2cccc(C(F)(F)F)c2)c2ccccc23)cc1 (stereo not given)	inactive: -5.23%	–
CCOc1ccc2oc(=O)cc(CN3CCN(Cc4ccc(C)cc4)CC3)c2c1	inactive: -13.7%	–
Cc1oc(-c2ccc(Cl)cc2)nc1CS(=O)CC(=O)NCCc1ccccc1 (stereo not given)	inactive: 7.44%	–
Cc1ccc(S(=O)(=O)c2nc(-c3cccs3)oc2SCC(=O)Nc2cc(C)cc(C)c2)cc1	–	active: 20.7 µM
COc1ccccc1OCC(=O)N(Cc1cccs1)C1CCS(=O)(=O)C1 (stereo not given)	inactive: 0.567%	–
CCOC(=O)Cn1nc(C)c(NC(=O)COc2ccccc2)c1C	inactive: 0.06%	–
COc1ccc(S(=O)(=O)NC(C)(C)C)cc1-c1nnc2c3ccccc3c(C)nn12	inactive: -1.2%	–
COc1ccccc1CNc1nc(-c2ccco2)nn1S(C)(=O)=O	inactive: 0%	–
COc1ccc(-n2cc(-c3ccccc3)nc2SCC(=O)Nc2ccccc2C)cc1	inactive: -4.29%	–
CCOC(=O)N1CCc2c(sc(NCc3cccc(F)c3)c2C(=O)Nc2ccc(OC)cc2)C1	inactive: -6.12%	–
